# From paper PMC6919601, “Identification of Plasmodium dipeptidyl aminopeptidase allosteric inhibitors by high throughput screening” (PLoS ONE, 2019)
# Where “and” joins values, the source holds several entries; their conditions need not be identical. Equal entries are not always repeated. The campaign covered roughly 110,000 compounds. About 230 (0.21%) showed an effect of 50% or more. This is one part of the list.
# Biological target: DPAP1 (Plasmodium falciparum, UniProt Q8IIJ9)
# Assay: primary screen, percent inhibition; read by cleavage of a fluorogenic dipeptide substrate; higher = more effect of the substance
# Set-up: species or system P. falciparum D10 trophozoite lysates; single well
# 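Also: 30 min substrate incubation versus DMSO and 10 µM JCP410 controls.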
# Chain of DPAP1 (Q8IIJ9 whole entry, looked up): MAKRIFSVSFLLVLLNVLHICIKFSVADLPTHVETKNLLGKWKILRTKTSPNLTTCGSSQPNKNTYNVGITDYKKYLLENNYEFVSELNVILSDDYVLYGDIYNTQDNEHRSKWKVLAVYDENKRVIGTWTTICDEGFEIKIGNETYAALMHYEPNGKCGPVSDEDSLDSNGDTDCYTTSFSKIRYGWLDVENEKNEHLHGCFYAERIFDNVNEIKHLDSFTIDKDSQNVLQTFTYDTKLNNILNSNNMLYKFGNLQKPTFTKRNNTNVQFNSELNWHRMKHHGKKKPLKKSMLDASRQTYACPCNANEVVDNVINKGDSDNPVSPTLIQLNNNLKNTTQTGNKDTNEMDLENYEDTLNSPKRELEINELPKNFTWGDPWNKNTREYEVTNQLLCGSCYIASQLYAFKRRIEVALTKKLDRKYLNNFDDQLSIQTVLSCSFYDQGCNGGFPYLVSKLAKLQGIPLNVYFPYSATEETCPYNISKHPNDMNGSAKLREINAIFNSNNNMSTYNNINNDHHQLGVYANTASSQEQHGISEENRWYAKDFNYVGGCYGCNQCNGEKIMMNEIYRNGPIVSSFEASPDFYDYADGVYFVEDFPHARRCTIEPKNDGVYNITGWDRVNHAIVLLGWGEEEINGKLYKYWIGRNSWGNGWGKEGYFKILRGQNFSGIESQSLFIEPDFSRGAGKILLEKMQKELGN
row,Structure (SMILES),% Inhibition @ 10 uM
1,COc1ccc(C(=O)c2cnc3ccccc3c2S(=O)(=O)c2ccccc2)cc1,-1.04%
2,Cn1c(=O)c2nc(-c3ccccn3)c(-c3ccccn3)nc2n(C)c1=O,-6.83%
3,Cc1ccc(C(=O)C2=C(O)C(=O)N(c3nc4ccccc4s3)C2c2ccc(O)cc2)cc1 (stereo not shown),-6.69%
4,Cc1nnc(N2CCCC(C(=O)NCc3ccc4c(c3)OCO4)C2)c2nn(-c3ccccc3)c(C)c12 (stereo not shown),11.4%
5,CC(O)CN1CCN(C(=O)c2ccccc2S(N)(=O)=O)CC1 (stereo not shown),2.65%
6,CN(Cc1ccccc1)S(=O)(=O)c1nnc(NC(=O)C(C)(C)C)s1,3.36%
7,Cc1sc(NC(=O)COc2ccc(F)cc2F)c(C#N)c1C,93.9%
8,CCCC(=O)N1CCN(c2ccc(C(C)=O)cc2F)CC1,-0.185%
9,CC12CN(Cc3cccc(Br)c3)CC(C)(CN(C(=S)Nc3ccccc3)C1)C2,2.51%
10,N#Cc1c(N)c(C(=O)c2ccc(Br)cc2)n2ccccc12,4.54%
11,COc1ccc(/C=C2\Cc3ccccc3C2=O)c(OC)c1,-1.31%
12,Brc1ccc(-c2nnc(SCCC3OCCCO3)o2)cc1,-0.053%
13,O=C(CN1CCCC1=O)NCCc1ccccc1,4.88%
14,C=CCN(CC=C)C(=O)c1ccc(OCC)cc1,-1.04%
15,CCc1nn(CC(=O)NCc2cc(Br)ccc2OC)c(=O)c2cc3sc(C)cc3n12,-1.7%
16,COc1ccc(NC(=O)Nc2cccc(F)c2)cc1,1.35%
17,COc1ccc(S(=O)(=O)N2CCC(C(=O)NCCCO)CC2)cc1OC,-0.169%
18,Cc1cc(N2CCC(O)CC2)nc2ccccc12,-8.19%
19,CCCCC(/C=C/S(=O)(=O)c1ccccc1)NC(=O)C(Cc1ccccc1)NC(=O)N1CCC(N2CCCCC2)CC1 (stereo not shown),3.19%
20,COc1ccc(C(=O)CSc2nc3cc(OC)ccc3[nH]2)cc1,4.55%
21,O=C(CSc1ccc(Br)cc1)N1CCCCC1,-2.24%
22,Cc1ccc(C(=O)N2CCN(C(=O)c3ccc(C)cc3)CC2)cc1,4.26%
23,O=C1CC(c2ccccc2Cl)c2ccc3ccccc3c2N1 (stereo not shown),4.98%
24,O=S(=O)(c1ccc(Cl)c(Cl)c1)N1CCOCC1,-7.5%
25,CCc1ccc(C(=O)CCN(C)C)cc1,2.76%

row,Structure (SMILES),% Inhibition @ 10 uM
1,CC1(C)CC(O)=C/C(=N/CCCn2ccnc2)C1,4.07% and -0.687%
2,COc1cc2ncc(C(=O)c3ccccc3)c(S(=O)(=O)c3ccc(F)cc3)c2cc1OC,-4.2%
3,C=CCn1c(=O)c2c(nc3n2CCCN3c2ccccc2)n(C)c1=O,5.92%
4,CCNC(=S)NCCc1c(C)[nH]c2ccc(OC)cc12,-3.94%
5,COc1cc(NC(=O)Nc2ccccc2)c(OC)cc1Cl,-1.07%
6,COc1ccc(CN2CC3(C)CC2CC(C)(C)C3)c(OC)c1C (stereo not shown),-2.95%
7,COc1ccc(NC(=O)c2ccc(Oc3ccccc3)cc2)cc1,-0.318%
8,O=C(Nc1ccc(S(=O)(=O)N2CCCCC2)cc1)c1cccs1,-2.56%
9,O=C(NCC12CC3CC(C1)CC(CNC(=O)c1cccs1)(C3)C2)c1cccs1,-0.28%
10,COc1ccc(N2C(=O)c3ccccc3NC2c2ccc3c(c2)OCO3)cc1 (stereo not shown),-0.173%
11,COc1cc(CNC(C)(C)CO)cc(Cl)c1OCc1ccccc1,2.76%
12,COc1ccc(/C=C/C(=O)/C=C/c2ccccc2)cc1,3.48%
13,Cc1cc(C)c2ccc3c(C)c(C)[nH]c3c2n1,-2.19%
14,CCOC(=O)N1CCC(NC(=O)c2ccc3c(c2)nc(C)n3-c2ccc(OCC)cc2)CC1,11.3%
15,O=C(NCc1ccccn1)Nc1ccc(Cl)cc1,-9.79%
16,COc1cccc(-n2nnc3c(=O)n(Cc4ccc(C(F)(F)F)cc4)cnc32)c1,-3.94%
17,Cc1ccc(S(=O)(=O)CCc2nc(S(=O)(=O)c3ccc(C)cc3)c(N(C)C)o2)cc1,-1.44%
18,COc1cccc(CN(CC2CCCO2)S(=O)(=O)c2ccc(S(=O)(=O)N3CCCC3)cc2)c1 (stereo not shown),3.66%
19,COC(=O)C1=CN(C)C=C(C(=O)OC)C1c1ccccc1OC,-1.48%
20,CC(=O)N(CCc1ccc(C)[n+]([O-])c1)c1ccccc1,11.4%
21,COc1cccc(N(CC(=O)NC(C)C)S(=O)(=O)c2ccccc2)c1,-3.25%
22,COc1ccccc1CNC(=O)c1nnc(-c2cccnc2)o1,-1.14%
23,CN(C)C(=O)Oc1cc(=O)n2c3c(cccc13)CCC2,-4.31%
24,CC(C)C[C@H](NS(=O)(=O)c1ccc(Br)cc1)C(=O)NCC#N,14.8%
